The text below walks through data of a collection of fitness landscapes (doi:10.1126/science.1257360).

The other results are listed elsewhere or left out.

B1: PhoQ; a variant is named by its letters at X, in order, P23837 (parent)
chain: MKKLLRLFFPLSLRVRFLLATAAVVLVLSLAYGMVALIGYSVSFDKTTFRLLRGESNLFYTLAKWENNKLHVELPENIDKQSPTMTLIYDENGQLLWAQRDVPWLMKMIQPDWLKSNGFHEIEADVNDTSLLLSGDHSIQQQLQEVREDDDDAEMTHSVAVNVYPATSRMPKLTIVVVDTIPVELKSSYMVWSWFIYVLSANLLLVIPLLWVAAWWSLRPIEALAKEVRELEEHNRELLNPATTRELTSLVRNLNRLLKSERERYDKYRTTLTDLTHSLKTPLXXLQXXLRSLRSEKMSVSDAEPVMLEQISRISQQIGYYLHRASMRGGTLLSRELHPVAPLLDNLTSALNKVYQRKGVNISLDISPEISFVGEQNDFVEVMGNVLDNACKYCLEFVEISARQTDEHLYIVVEDDGPGIPLSKREVIFDRGQRVDTLRPGQGVGLAVAREITEQYEGKIVAGESMLGGARMEVIFGRQHSAPKDE

In the assay the parent is B1. In words: enrichment ratio after two sorts for PhoP signalling (ratio (wild type AVST 3.29)); higher = more functional. The conditions noted are these: with PhoP (E. coli).
As for PPTA, the enrichment ratio is at most 0.25.

YLNY: the enrichment ratio was at most 0.25.

Take YLKC: the enrichment ratio is at most 0.25.

In the case of YMCQ, the enrichment ratio was 0.274. For PILC the value was at most 0.25; for YECL, 1.07. For YHSP the value was at most 0.25; for QTTC, at most 0.25. As to VMID, the enrichment ratio is at most 0.25. For LADA the value was at most 0.25. On to NQFS, for which the enrichment ratio was at most 0.25.

For YHGC, the enrichment ratio was at most 0.25. For WCFR the value was at most 0.25; for GSLT, 9.31; for DFTE, at most 0.25.

HKDF: the enrichment ratio is at most 0.25. In the case of TWNL, the enrichment ratio was at most 0.25. For QANI the value was at most 0.25; for RGPP, at most 0.25. For FSYS the value was at most 0.25; for AFIG, 1.67; for YIHL, at most 0.25. For LVKP the value was at most 0.25. With GWSW, the enrichment ratio was at most 0.25. The figure for NTCL is at most 0.25.

On to DGVT, for which the enrichment ratio is at most 0.25. For FTVM the value was 6.58. IDQI: the enrichment ratio is at most 0.25. For KHGC the value was at most 0.25; for WEKV, at most 0.25; for YMYM, at most 0.25.

On to YSRV, for which the enrichment ratio was at most 0.25. The figure for MDRQ is 0.934. The figure for YHGT is at most 0.25. Consider VCHM, for which the enrichment ratio is at most 0.25. For SKVA the value was 1.14; for QDLQ, at most 0.25; for TAVE, at most 0.25.

In the case of FLNH, the enrichment ratio was at most 0.25. Consider VVNY, for which the enrichment ratio was at most 0.25. The figure for RKVR is at most 0.25; for EWLN it is at most 0.25. The figure for QLCP is 0.681. The figure for DTKA is at most 0.25. Take LLGK: the enrichment ratio is at most 0.25. Regarding GPTE, the enrichment ratio was at most 0.25. The figure for AIMQ is at most 0.25. For the variant MNQK, the enrichment ratio was at most 0.25. For the variant METV, the enrichment ratio amounted to 1.22.

For FVNW, the enrichment ratio is at most 0.25. The figure for WGRN is at most 0.25; for FADG it is at most 0.25; for LMYQ it is at most 0.25.

On to RFKG, for which the enrichment ratio is at most 0.25.

Take YDEY: the enrichment ratio is at most 0.25. The figure for MCRQ is at most 0.25; for PWLK it is at most 0.25; for KTET it is at most 0.25. Take NCNS: the enrichment ratio was at most 0.25.

REMI: the enrichment ratio is at most 0.25.

As for STEQ, the enrichment ratio was at most 0.25. For LSKK the value was at most 0.25; for RYMS, at most 0.25. With DNPW, the enrichment ratio is at most 0.25. As to DKVI, the enrichment ratio is at most 0.25. Take LKKA: the enrichment ratio was at most 0.25. The figure for RDSI is at most 0.25; for IEPG it is at most 0.25. As to WCKY, the enrichment ratio is at most 0.25. The figure for AEPR is at most 0.25; for LCAE it is at most 0.25; for NYLF it is at most 0.25. The figure for YLTH is at most 0.25; for ANWS it is at most 0.25. For IEPP the value was at most 0.25; for IVSN, at most 0.25; for GQQC, at most 0.25.

For VWNG, the enrichment ratio is at most 0.25. For AEHW the value was at most 0.25; for RCAT, at most 0.25; for VHLD, at most 0.25.

In the case of GGTK, the enrichment ratio is at most 0.25. For FCPQ the value was 0.422; for LFRV, at most 0.25; for QQMH, at most 0.25.

In the case of SMWW, the enrichment ratio is at most 0.25. For YYYM the value was at most 0.25. As to FQQK, the enrichment ratio is at most 0.25. The figure for WPIV is 0.674. As for IIPE, the enrichment ratio is at most 0.25. The figure for PETP is at most 0.25. For MVLE the value was at most 0.25. The figure for SMVW is 1.49; for AIMD it is 2.31. Turning to SYGQ, the enrichment ratio is at most 0.25. For IQEL the value was at most 0.25; for ACMS, 8.75. For GKYG, the enrichment ratio was at most 0.25. For GHLM the value was at most 0.25.

In the case of PHMF, the enrichment ratio was at most 0.25. For IMVS the value was at most 0.25; for RDFE, at most 0.25; for QPLR, at most 0.25.

LKWE: the enrichment ratio is at most 0.25. For YMHR the value was at most 0.25; for IPYE, at most 0.25. For LWVA the value was at most 0.25. For PCVY, the enrichment ratio is at most 0.25. The figure for LDDC is at most 0.25; for LMDP it is at most 0.25.

As for MPAA, the enrichment ratio is at most 0.25. For SWLP the value was at most 0.25; for DSWI, at most 0.25.

Consider PIKW, for which the enrichment ratio is at most 0.25. For KQMW the value was at most 0.25; for PYIC, at most 0.25.

Take PAEQ: the enrichment ratio is at most 0.25. For DRLS the value was at most 0.25; for ISAE, at most 0.25. For APNY the value was at most 0.25; for DQHK, at most 0.25; for YMRT, at most 0.25. For WPER the value was at most 0.25.

For the variant RTQT, the enrichment ratio is at most 0.25. For HAFC the value was at most 0.25. In the case of WPHF, the enrichment ratio was at most 0.25. On to FKHC, for which the enrichment ratio was at most 0.25. The figure for DQHY is at most 0.25. For GGEL the value was at most 0.25. The figure for ENIN is at most 0.25. Turning to ELIS, the enrichment ratio is at most 0.25. For the variant IVAL, the enrichment ratio was at most 0.25.

Turning to GPNK, the enrichment ratio is at most 0.25.

With YHHA, the enrichment ratio is at most 0.25.

Turning to TTYE, the enrichment ratio was determined as 0.712. Take ELHW: the enrichment ratio is at most 0.25. As to VIFQ, the enrichment ratio is at most 0.25. The figure for PVFA is at most 0.25. For PQAW the value was at most 0.25. For the variant PGYK, the enrichment ratio was at most 0.25.

With HECS, the enrichment ratio was determined as 2.84.

Take MENG: the enrichment ratio is at most 0.25.

In the case of PHGA, the enrichment ratio is at most 0.25.

Regarding KVYC, the enrichment ratio is at most 0.25. The figure for PSSQ is at most 0.25. For YKIC the value was at most 0.25; for PQTC, at most 0.25; for YWYH, at most 0.25. Take MFFF: the enrichment ratio is at most 0.25. Regarding AYKW, the enrichment ratio was at most 0.25.

Take IICE: the enrichment ratio was at most 0.25.

Take VGFA: the enrichment ratio was at most 0.25.

On to RVQI, for which the enrichment ratio was at most 0.25.
